Experimental data from article doi:10.1101/2025.05.13.653810, “Spatial control of secretory vesicle targeting by the Ync13–Rga7–Rng10 complex during cytokinesis” (bioRxiv, 2025).
These are yes or no findings as the source states them, for the method shown. Some results given as binding are weak or reduced against the parent protein; the word gives no strength. For part of these data: Sequences can lack the tags named with a protein.

Legend:
Test in all cases: ectopic mistargeting to mitochondria (Tom20-GBP); mEGFP-, GFP- or mECitrine-tagged protein 1 mistargeted to mitochondria by Tom20 tagged with GFP-binding protein (GBP) nanobody in live S. pombe cells; recruitment of tdTomato-, mCherry- or RFP-tagged protein 2 to mitochondria seen by confocal microscopy
[1] = biological target: T1, Rng10(1–750)-mEGFP (S. pombe) (UniProt Q9P6L9)
T1 sequence: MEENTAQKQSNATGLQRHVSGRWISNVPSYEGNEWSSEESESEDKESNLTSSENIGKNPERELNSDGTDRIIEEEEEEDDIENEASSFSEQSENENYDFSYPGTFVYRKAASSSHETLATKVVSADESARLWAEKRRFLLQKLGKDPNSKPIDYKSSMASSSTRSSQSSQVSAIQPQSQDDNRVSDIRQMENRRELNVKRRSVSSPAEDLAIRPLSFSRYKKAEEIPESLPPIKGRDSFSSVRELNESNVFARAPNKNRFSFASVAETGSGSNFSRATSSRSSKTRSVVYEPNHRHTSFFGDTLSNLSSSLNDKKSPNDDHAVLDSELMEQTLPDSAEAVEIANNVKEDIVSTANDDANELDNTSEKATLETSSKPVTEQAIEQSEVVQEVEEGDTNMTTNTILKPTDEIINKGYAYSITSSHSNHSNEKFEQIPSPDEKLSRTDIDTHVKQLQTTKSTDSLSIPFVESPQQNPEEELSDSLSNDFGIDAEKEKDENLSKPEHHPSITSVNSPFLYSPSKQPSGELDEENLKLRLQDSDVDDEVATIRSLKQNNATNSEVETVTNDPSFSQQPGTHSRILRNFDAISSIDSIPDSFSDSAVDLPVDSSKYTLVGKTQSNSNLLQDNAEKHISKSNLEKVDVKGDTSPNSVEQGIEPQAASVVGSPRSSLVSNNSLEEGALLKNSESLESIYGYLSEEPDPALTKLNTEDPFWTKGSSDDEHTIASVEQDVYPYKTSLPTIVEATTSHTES

Rga7-mEGFP (S. pombe) = biological target: T2, Rga7-mEGFP (S. pombe) (UniProt O94466)
T2 sequence: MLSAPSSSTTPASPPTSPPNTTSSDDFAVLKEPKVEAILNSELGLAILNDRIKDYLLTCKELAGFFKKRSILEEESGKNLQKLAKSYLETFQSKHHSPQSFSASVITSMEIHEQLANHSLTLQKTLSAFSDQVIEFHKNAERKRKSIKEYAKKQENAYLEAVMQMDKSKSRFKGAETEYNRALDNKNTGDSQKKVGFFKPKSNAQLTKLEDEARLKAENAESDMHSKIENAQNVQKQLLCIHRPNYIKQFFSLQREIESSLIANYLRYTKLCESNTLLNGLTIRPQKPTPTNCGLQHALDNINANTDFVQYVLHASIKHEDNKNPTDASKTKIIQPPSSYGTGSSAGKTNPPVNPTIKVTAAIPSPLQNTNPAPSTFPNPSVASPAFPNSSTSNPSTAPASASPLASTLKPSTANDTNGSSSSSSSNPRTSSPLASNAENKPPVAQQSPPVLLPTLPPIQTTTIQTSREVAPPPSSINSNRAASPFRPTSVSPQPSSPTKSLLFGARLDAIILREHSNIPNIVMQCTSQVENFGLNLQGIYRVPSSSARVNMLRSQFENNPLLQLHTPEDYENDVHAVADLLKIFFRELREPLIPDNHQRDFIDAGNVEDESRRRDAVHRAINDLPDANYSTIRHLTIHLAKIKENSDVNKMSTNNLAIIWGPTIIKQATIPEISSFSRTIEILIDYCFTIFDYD

[2] = biological target: T3, mECitrine-Rng10(751–1038) (S. pombe) (UniProt Q9P6L9)
T3 sequence: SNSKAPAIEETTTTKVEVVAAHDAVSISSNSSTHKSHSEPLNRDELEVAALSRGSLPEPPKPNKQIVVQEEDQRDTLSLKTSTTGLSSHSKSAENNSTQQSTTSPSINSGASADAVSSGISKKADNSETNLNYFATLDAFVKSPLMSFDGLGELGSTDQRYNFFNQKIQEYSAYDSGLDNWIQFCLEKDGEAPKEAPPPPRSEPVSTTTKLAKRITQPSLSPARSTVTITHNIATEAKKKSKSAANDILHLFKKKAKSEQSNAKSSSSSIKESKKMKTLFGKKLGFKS

Measured: binding

B1: Ync13-tdTomato (protein, UniProt O13683 1-1237)
chain: MNCRRKPLPLHSNEVQAAESISKDELYSWTLKNVLILFLVQYRASTPSALQTSSFSTPVEKKTNGAFSGSLFSAKEKKDNPKYPKDFIKYLSLALESISMGKEPEYQDQLIRGCFAAFYNNINKSHISKQLKDSRKIEDMFLIFASSVSSELTKRLGTAYDSNLADRITASFIELCKRVTLKGQLASPSSEFVSHLDMYHSKLLNKSEILSTKRVNRGQDQFDLSSFPLLKVFSSVFKVAYSKALLDAEKLFPSIDEAAIAEDIGILIEDLESDACKFSHSVVDFSNYKSYSTWKARELQTLEQHRKIMLSLIPLSSSPNHPIQPIGFPASRKTPTYVPPIARPYFRQLLSLCLEYRLQVTDPVEVKQINTFIRECSIYWRILPSTRCALSMDFAREHLQKGLITSADVLTHFGELHKSLKEWEITYWPKIDVSIFSSALFGIRNALAQLLKKSLLDLLHEKKADFHRWLNIMSICVEDGKVINQDLSPKSEISSVALALQEHCKVIFDEEFDLSKLPSSNFLDEIILASNRISVRIKFLERNCSECIYGVLSLPQIFINIVLPNYIRAALVVAKEYLREKANADINDLTKDMLEIYSDLKQMIHVLQEYHNEEYRIGSFEGFFQPFIDSWLDNVEASAEQWFLRSLEKDNFDENSSEGQYSSSIVDLFHAFHQAFRTLEGFEWEDDLANARFFTRFFRVIYIVLSKYTQWTTQKFFEEANKQDDTSEVQNDNSSSWFSKARNILSGSNEVLPFRFSPTMCILLNNIHFAMHAYEELEQKIDLQRLIEALDVAESTKRHKISATNYLYTIKVVRGEGLHPDGAGKIRTSYIVLTDNKGRRIGKTRPIHSMNPRWDDTFEVKTKDALMITANLWSKGKFNDHEIFGRSSFTLSPKIYGDYLPREEWFDLNPHGELLLRIEMEGEREHIGFYVGRTYHDLERAQREMIKFIVNKMEPVINQNLSTATLKKLLSANTWMDLDKTMTSVTSLLNRTGFSSKSSENVKKEGELTDVQIEAAIYELLDYFDLNFSIIAKHLTKDVFVTVMSYVWDEVVCTTEELLLPPVSVKPINRKPLSPAQMAIVYRWLQFLKDYFYANGEGVKLPVLETDHYKELLRVQEYYDKPTDFLLQECDKIASQLYLSSRMVNNEPVESLPRHSRIKFANKEIYRSGTIRKVHIQTNESELERNERIILRILRMRADSKRFLSKHFQRKGRLLMADAMRNGYVMPLGHLKKLDSR
binds: all assays above
